From article PMC4336329 (PLoS ONE, 2015)
Among all 310,000 compounds or so, about 2,200 (0.71%) showed an effect of 50% or more. The effect is printed as a negative number. This is one part of the list.

Target: human ether-à-go-go-related gene (hERG) potassium channel (human, UniProt Q12809)
Test: primary screen, population patch clamp on CHO cells stably expressing hERG

Chain of human ether-à-go-go-related gene (hERG) potassium channel (Q12809 whole entry, looked up): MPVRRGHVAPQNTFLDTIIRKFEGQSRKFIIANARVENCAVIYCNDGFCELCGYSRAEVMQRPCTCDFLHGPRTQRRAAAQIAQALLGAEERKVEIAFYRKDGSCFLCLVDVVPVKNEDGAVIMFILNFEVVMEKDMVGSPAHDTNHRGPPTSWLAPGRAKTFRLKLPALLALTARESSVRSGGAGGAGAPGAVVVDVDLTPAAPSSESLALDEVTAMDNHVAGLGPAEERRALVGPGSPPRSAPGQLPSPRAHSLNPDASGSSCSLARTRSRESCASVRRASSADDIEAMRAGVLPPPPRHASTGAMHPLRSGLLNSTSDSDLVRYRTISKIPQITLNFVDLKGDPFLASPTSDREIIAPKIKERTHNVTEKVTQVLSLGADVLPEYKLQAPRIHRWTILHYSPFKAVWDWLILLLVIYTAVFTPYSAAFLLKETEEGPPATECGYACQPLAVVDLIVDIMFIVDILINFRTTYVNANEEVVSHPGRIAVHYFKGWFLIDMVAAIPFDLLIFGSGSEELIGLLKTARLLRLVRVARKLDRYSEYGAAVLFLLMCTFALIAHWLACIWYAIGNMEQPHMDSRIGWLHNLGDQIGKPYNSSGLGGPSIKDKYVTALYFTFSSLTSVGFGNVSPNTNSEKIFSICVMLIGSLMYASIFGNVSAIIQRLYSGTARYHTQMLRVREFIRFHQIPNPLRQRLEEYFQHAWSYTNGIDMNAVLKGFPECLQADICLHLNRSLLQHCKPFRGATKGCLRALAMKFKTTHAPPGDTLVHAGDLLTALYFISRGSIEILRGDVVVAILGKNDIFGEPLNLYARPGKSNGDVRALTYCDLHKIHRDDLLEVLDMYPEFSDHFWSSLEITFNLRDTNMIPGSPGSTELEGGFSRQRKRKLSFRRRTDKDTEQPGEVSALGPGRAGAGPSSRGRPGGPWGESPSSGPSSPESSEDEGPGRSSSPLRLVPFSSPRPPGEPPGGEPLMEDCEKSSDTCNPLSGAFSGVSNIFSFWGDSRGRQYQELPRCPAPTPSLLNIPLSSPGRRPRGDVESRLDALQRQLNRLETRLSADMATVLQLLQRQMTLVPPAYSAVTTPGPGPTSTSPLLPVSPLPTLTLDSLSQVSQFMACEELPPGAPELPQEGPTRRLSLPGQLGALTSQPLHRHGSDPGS

Question: With COc1ccccc1C(=O)COC(=O)c1cnc(C)cn1 as the compound, how does the “hERG current change (%, negative = inhibition) at 1uM” value read?
Answer: 5.5%

Question: O=C(c1cccc(C(F)(F)F)c1)N1CCC2(CC1)NCCc1[nH]cnc12 was tested. Which “hERG current change (%, negative = inhibition) at 1uM” value did it give?
Answer: 14.9%

Question: Which “hERG current change (%, negative = inhibition) at 1uM” value does the source give for CCOC(=O)C1C(=O)CC(C)(O)C(C(=O)OCC)C1c1cccc(OC(F)(F)C(F)F)c1 (stereo not drawn) here?
Answer: 6.81%

Question: Which “hERG current change (%, negative = inhibition) at 1uM” value does the source give for CC(C)(C)c1ccc(/C=N/NC(=S)Nc2cccnc2)cc1 here?
Answer: 11.8%

Question: With O=C(Nc1ccc(Cc2ccncc2)cc1)C1CCC(N2C(=O)C3C4C=CC(C5CC45)C3C2=O)CC1 (stereo not drawn) as the compound, how does the “hERG current change (%, negative = inhibition) at 1uM” value read?
Answer: 11.3%

Question: COc1ccc(C(=O)NCC(=O)OCC(=O)Nc2cccc(S(=O)(=O)N3CCCC3)c2)cc1 was tested. Which “hERG current change (%, negative = inhibition) at 1uM” value did it give?
Answer: 7.46%

Question: With CCCCCC(=O)NC(=S)Nc1ccc(N2CCOCC2)cc1 as the compound, how does the “hERG current change (%, negative = inhibition) at 1uM” value read?
Answer: 6.61%

Question: For N#Cc1c(NC(=O)c2cnccn2)sc2c1CCCC2, which “hERG current change (%, negative = inhibition) at 1uM” value is on record?
Answer: 8.57%

Question: With CCC(C)NC(=S)Nc1ccc2nc(N3CCN(CC)CC3)cc(C)c2c1 (stereo not drawn) as the compound, how does the “hERG current change (%, negative = inhibition) at 1uM” value read?
Answer: -1.18%

Question: For O=S(=O)(Nc1nc2ccccc2nc1Cl)c1ccc2ccccc2c1, which “hERG current change (%, negative = inhibition) at 1uM” value is on record?
Answer: 3.71%

Question: For FC(F)(F)c1nc2ccccc2nc1N/N=C\c1ccccc1, which “hERG current change (%, negative = inhibition) at 1uM” value is on record?
Answer: 13.1%

Question: CC(=O)NC(CC(=O)Nc1cc(Cl)ccc1-n1cncn1)c1ccccc1 (stereo not drawn) was tested. Which “hERG current change (%, negative = inhibition) at 1uM” value did it give?
Answer: 12.8%

Question: Which “hERG current change (%, negative = inhibition) at 1uM” value does the source give for Cc1cc(NC(=O)CSc2nnc(CNC(=O)c3ccc(C(C)(C)C)cc3)o2)no1 here?
Answer: 11.8%

Question: N#CC(C#N)=C1CCc2ccccc2N1 was tested. Which “hERG current change (%, negative = inhibition) at 1uM” value did it give?
Answer: 13.1%

Question: With CN1C(=O)CC(Sc2ncccc2C(=O)O)C1=O (stereo not drawn) as the compound, how does the “hERG current change (%, negative = inhibition) at 1uM” value read?
Answer: 5.82%

Question: With CCOC(=O)c1ccsc1NC(=O)CCS(=O)(=O)c1ccccc1 as the compound, how does the “hERG current change (%, negative = inhibition) at 1uM” value read?
Answer: 7.82%

Question: Which “hERG current change (%, negative = inhibition) at 1uM” value does the source give for CCCC[C@H]1COCCS(=O)(=O)N1Cc1ccccc1F here?
Answer: 5.73%

Question: With Cc1ccc2cc(CN(CC(C)C)S(=O)(=O)c3ccccc3)c(=O)[nH]c2c1 as the compound, how does the “hERG current change (%, negative = inhibition) at 1uM” value read?
Answer: 19.6%

Question: O=S1(=O)C=C(Oc2ccc(F)cc2)c2ccccc21 was tested. Which “hERG current change (%, negative = inhibition) at 1uM” value did it give?
Answer: -1.18%

Question: Which “hERG current change (%, negative = inhibition) at 1uM” value does the source give for Cc1oc2cc(OCC(=O)O)ccc2c(=O)c1Oc1ccccc1 here?
Answer: 11.3%

Question: For COc1cc(OC)cc(C(=O)NCC(C)NC(=O)c2cc(OC)cc(OC)c2)c1 (stereo not drawn), which “hERG current change (%, negative = inhibition) at 1uM” value is on record?
Answer: 9.69%

Question: O=C(NCC(=O)N(c1cccnc1)C(C(=O)NC1CCCCC1)c1cccnc1)c1ccco1 (stereo not drawn) was tested. Which “hERG current change (%, negative = inhibition) at 1uM” value did it give?
Answer: 4.67%

Question: For O=c1[nH]c(SCCOc2ccccc2)nc2ccccc12, which “hERG current change (%, negative = inhibition) at 1uM” value is on record?
Answer: -0.179%

Question: How did the “hERG current change (%, negative = inhibition) at 1uM” value turn out when Cn1nc(C(F)(F)F)c(-c2ccc(Br)cc2)c1NC(=O)Nc1ccc(F)cc1F was run?
Answer: 10.9%

Question: Cc1ccc(S(=O)(=O)NN=C2CCC(C(C)(C)C)CC2)cc1[N+](=O)[O-] (stereo not drawn) was tested. Which “hERG current change (%, negative = inhibition) at 1uM” value did it give?
Answer: 12.8%

Question: How did the “hERG current change (%, negative = inhibition) at 1uM” value turn out when O=C(Nc1ccc(Cl)cc1)NC1CCCCC1Cc1ccco1 (stereo not drawn) was run?
Answer: 4.96%

Question: Which “hERG current change (%, negative = inhibition) at 1uM” value does the source give for O=C(CCCCCNC(=O)N1CCn2c1nc1ccccc12)N[C@H](Cc1ccccc1)C(=O)O here?
Answer: 6.26%

Question: For C=C1CCN([C@@H](CC(C)C)C(=O)N2CCOCC2)S(=O)(=O)c2ccccc21, which “hERG current change (%, negative = inhibition) at 1uM” value is on record?
Answer: 18.4%

Question: With OC1(c2cccc(F)c2)CCN(Cc2ccncc2)CC1 as the compound, how does the “hERG current change (%, negative = inhibition) at 1uM” value read?
Answer: -0.518%

Question: For CC1=NNC(=O)C(CC(=O)Nc2ccc(Cl)c(Cl)c2)C1 (stereo not drawn), which “hERG current change (%, negative = inhibition) at 1uM” value is on record?
Answer: -4.82%

Question: Which “hERG current change (%, negative = inhibition) at 1uM” value does the source give for CC(C1CC2CCC1C2)n1c(-c2cccs2)n[nH]c1=S (stereo not drawn) here?
Answer: 8.52%

Question: How did the “hERG current change (%, negative = inhibition) at 1uM” value turn out when Cc1nn(C)cc1CNC(=O)C1C2CCC(O2)C1C(=O)O (stereo not drawn) was run?
Answer: 18.3%

Question: How did the “hERG current change (%, negative = inhibition) at 1uM” value turn out when O=C(NCc1ccccc1)C(C(=O)c1ccc(F)cc1)n1ccccc1=O (stereo not drawn) was run?
Answer: 8.23%

Question: With CCOC(=O)Cn1c(N2CCCCCC2)nc2c1c(=O)[nH]c(=O)n2C as the compound, how does the “hERG current change (%, negative = inhibition) at 1uM” value read?
Answer: 12.2%

Question: How did the “hERG current change (%, negative = inhibition) at 1uM” value turn out when CC(C(=O)O)N1C(=O)/C(=C/C=C/c2ccco2)SC1=S (stereo not drawn) was run?
Answer: 6.3%

Question: O=C(N/N=C/c1ccccc1O)C1CC(=O)N(c2ccc(F)cc2)C1 (stereo not drawn) was tested. Which “hERG current change (%, negative = inhibition) at 1uM” value did it give?
Answer: 3.42%

Question: CCOC(=O)C1=C(C)NC(SCc2cc(=O)[nH][nH]2)=C(C#N)C1c1cccs1 (stereo not drawn) was tested. Which “hERG current change (%, negative = inhibition) at 1uM” value did it give?
Answer: 13.7%

Question: Which “hERG current change (%, negative = inhibition) at 1uM” value does the source give for COc1ccc(CCNC2=C(Cl)C(=O)N(CCc3ccc(OC)c(OC)c3)C2=O)cc1OC here?
Answer: 9.08%

Question: How did the “hERG current change (%, negative = inhibition) at 1uM” value turn out when Cc1cc(C)c(NC(=O)C2CCCO2)c(C)c1 (stereo not drawn) was run?
Answer: 12.9%

Question: For Cn1c(=O)cc(OCCCC(=O)Nc2ccccn2)c2ccccc21, which “hERG current change (%, negative = inhibition) at 1uM” value is on record?
Answer: 3.49%

Question: How did the “hERG current change (%, negative = inhibition) at 1uM” value turn out when COC(=O)c1cc2ccsc2n1CC(=O)NCC1CCCO1 (stereo not drawn) was run?
Answer: 8.07%

Question: How did the “hERG current change (%, negative = inhibition) at 1uM” value turn out when CCc1ccccc1NC(=O)N[C@@H](C)C(=O)O was run?
Answer: -0.333%

Question: With Clc1cccc(COn2c(-c3ccc(Cl)cc3Cl)nc3ncccc32)c1 as the compound, how does the “hERG current change (%, negative = inhibition) at 1uM” value read?
Answer: 9.23%

Question: O=C(NCCN1CCCC1=O)C1CCC(=O)N(CCc2ccc(Cl)cc2)C1 (stereo not drawn) was tested. Which “hERG current change (%, negative = inhibition) at 1uM” value did it give?
Answer: -5.26%

Question: For COc1cc(NC(=O)c2oc3ccccc3c2C)ccc1NC(=O)c1ccco1, which “hERG current change (%, negative = inhibition) at 1uM” value is on record?
Answer: 15.6%
